The text below walks through data of ChEMBL document CHEMBL4888484, “Replenishing the malaria drug discovery pipeline: Screening and hit evaluation of the MMV Hit Generation Library 1 (HGL1) against asexual blood stage Plasmodium falciparum ,using a nano luciferase reporter read-out” (2022).

A word on the % Inhibition: it is the relative decrease from the control value, in per cent.

The structures appear in SMILES notation. The campaign covered roughly 150,000 compounds. About 540 (0.36%) showed an effect of 50% or more. The list shows a part of the results.

The test system of this assay is Plasmodium falciparum. Nature of the assay: Primary screen in NF54 nanoGlo assay, in single point, at 2uM, 72h; a lower Z score goes with more inhibition. It counts as functional, Erythrocyte. As to conditions: timepoint 72 hour.
In the case of `COC(=O)C[C@H]1CCN(C(=O)Nc2cccnc2Oc2ccc(F)cc2)C1`, the “% Inhibition” value came to 3% and the Z score is recorded as -0.62.
The like results for `CCc1nc(N)nc(NCCN2CCOC2=O)c1C` were, in that order, 7% and -0.66.
The corresponding values for `CC(C)(C)c1nc(N2CCN(C(=O)CO)CC2)no1` are 0% and 0.03.
With `Cc1nc2ccc(NC(=O)CS(=O)(=O)Cc3ccccc3)cc2s1`, the “% Inhibition” value is reported as -17% and the Z score is 3.18.
`CC(=O)NCC(=O)NCc1ccnc(-c2ccco2)c1`: the “% Inhibition” value is -2% and the Z score was 0.33.
Turning to `Cc1nc2n(c1C)CCN([C@@H](C(=O)NC1CC1)c1ccccc1)C2`, the “% Inhibition” value is given as -9% and the Z score was 1.28.
On to `O=C(Cc1cc(-c2ccccc2)on1)NCc1ccco1`, for which the “% Inhibition” value is given as -4% and the Z score is 0.51.
As for `CCOCCC(=O)N1CCN(C(=O)CCOCC)[C@H](C#N)C1`, the “% Inhibition” value is given as -18% and the Z score stood at 2.35.
For `COCc1nc(C)c(C(=O)N2CCC[C@]3(CCCOC3)C2)s1`, the “% Inhibition” value was -7% and the Z score is 0.98.
With `CCc1nc(C(C)NC(=O)N2CCC(CS(C)(=O)=O)C2)cs1` (stereo not given), the “% Inhibition” value is given as -6% and the Z score is given as 0.6.
The corresponding values for `COc1cccc2sc(N3CC(C(=O)NCC(F)(F)F)C3)nc12` are -7% and 1.38.
Take `COCCn1nnnc1[C@]1(N2CCOCC2)CCCN(C(=O)Cn2nc(C)cc2C)C1`: the “% Inhibition” value is -12% and the Z score was found to be 1.56.
The like results for `Cc1ccc(Oc2ncccc2CNC(=O)c2cccc(F)c2)cn1` were, in that order, -13% and 1.21.
For the compound `Cc1ccc(O)c(CNCC2(c3ccccc3Cl)CCOCC2)n1`, the “% Inhibition” value amounted to 98% and the Z score was -10.48.
The like results for `CCN(C(=O)c1ncccc1C)C1CCOCC1` were, in that order, -1% and 0.26.
The like results for `O=C1CCC(C(=O)N2CCC(c3nccn3Cc3ccccc3)CC2)=NN1` were, in that order, -2% and 0.25.
The corresponding values for `Cn1c(CN2CCN(c3ccc(O)cc3)CC2)cc(=O)n(C)c1=O` are 6% and -0.89.
Turning to `Cc1ccc(-c2nn3nc(COc4cccc5c4OC(C)(C)C5)nc3s2)cc1`, the “% Inhibition” value was 42% and the Z score was -5.39.
The corresponding values for `CC(C)[C@H]1CN(Cc2cc3ccccc3o2)C[C@@H]1N(C)C` are -4% and 0.79.
The like results for `Cc1nc(-c2cccc(Cl)c2)sc1-c1cc(C(=O)N2CCN(c3ccccc3)CC2)[nH]n1` were, in that order, -10% and 1.23.
The like results for `Cc1ccc(NC(=O)C2C3NC(=O)N(C4CCCCC4)C2(C)Oc2ccccc23)c(C)c1` (stereo not given) were, in that order, 29% and -3.92.
As to `CCn1nc(C)cc1C(=O)Nc1c(N2CCCC2)nn(C)c1C`, the “% Inhibition” value is reported as -19% and the Z score is 3.58.
The like results for `Cc1ccc(OCc2cc(C(=O)N(Cc3ccccc3)CC3CCC3)no2)cn1` were, in that order, -18% and 1.96.
`CN1c2ccccc2C(=O)N[C@@H]1c1ccccc1OCc1ccccc1`: the “% Inhibition” value was 35% and the Z score is recorded as -5.05.
With `Cc1cc(C(=O)N2C[C@H]3CCC[C@@H](O)[C@H]3C2)c(C)o1`, the “% Inhibition” value is reported as -12% and the Z score was 1.15.
The like results for `Cc1onc(-c2ccccn2)c1C(=O)N[C@H]1CCCOCC1` were, in that order, 12% and -1.37.
As to `C#CC(NS(=O)(=O)c1ccc(NS(=O)(=O)CCC)c(F)c1)C1CCOC1` (stereo not given), the “% Inhibition” value is recorded as -6% and the Z score was found to be 0.66.
As for `O=C(Nc1ccc2c(c1)OCO2)N1CCC(c2ccsc2)CC1`, the “% Inhibition” value is -8% and the Z score is reported as 1.18.
The corresponding values for `CCN(CCOc1cccc(OC)c1)C(=O)Cc1cccc(O)c1` are 17% and -2.17.
For `CCc1nc(NC(=O)N[C@@H]2C=C[C@H](CO)C2)sc1C`, the “% Inhibition” value was -2% and the Z score was 0.27.
In the case of `O=C(c1ccc2[nH]ccc2c1)N1Cc2cccnc2C1`, the “% Inhibition” value is on record as -10% and the Z score worked out at 1.66.
The like results for `CC(C)Oc1cc(CN(Cc2csc([C@@H]3CCCO3)n2)C2CC2)ccn1` were, in that order, 12% and -1.48.
The like results for `COCCN(Cc1cc(Cl)cs1)[C@@H](C)C(N)=O` were, in that order, -10% and 1.14.
The corresponding values for `O=C(Cc1cccc(Cl)c1)NC1CC1` are -6% and 1.
With `Cc1ccc(-c2ncn(C3CCCCC3)c2-c2ccc(C(=O)N3CCN(c4ncccn4)CC3)o2)cc1`, the “% Inhibition” value is -5% and the Z score amounted to 0.71.
For `CCOc1cccc(Cl)c1CN1CCOC[C@H]1c1nnc(C)o1`, the “% Inhibition” value is -12% and the Z score was determined as 2.36.
The corresponding values for `C[C@H]1CCCN(Cc2ccccc2CNC(=O)c2nccnc2N)C1` are 7% and -1.35.
The corresponding values for `CC(C)(C(=O)NCc1cc2c(s1)CCCCC2)S(C)(=O)=O` are 1% and -0.11.
The corresponding values for `Cc1cc(C(=O)Nc2nc3c(s2)CCCC3)cs1` are -4% and 0.67.
Take `O=c1c2ccccc2ncn1C[C@H]1CC[C@H](C(=O)NC[C@H]2CC[C@H](C(=O)O)CC2)CC1`: the “% Inhibition” value is listed as -10% and the Z score came out at 1.37.
The corresponding values for `CC(C)OCCS(=O)(=O)NCc1nccs1` are -10% and 1.03.
The corresponding values for `COc1cccc(-c2nnc3c4ccccc4nc(N4CCN(C(=O)CC(C)(C)C)CC4)n23)c1` are -5% and 0.74.
The like results for `O=C(CN1Cc2ccccc2C2(CCC2)C1)N1CCOCC1` were, in that order, 1% and -0.09.
As for `CC(C)N1C(=O)C[n+]2ccccc2[C@@H]1C(=O)Nc1ccccc1`, the “% Inhibition” value is -5% and the Z score is recorded as 0.83.
Consider `CC(=O)Nc1ccc(C)c(C(O)(C(F)(F)F)C(F)(F)F)c1`, for which the “% Inhibition” value is listed as 4% and the Z score is -0.53.
The like results for `CNC(=O)C1CN(C(=O)c2ccc(C3CC3)nc2C)C1` were, in that order, 4% and -0.49.
The corresponding values for `COCCCN(CCC(=O)N1CCOCC1)C(=O)c1cc(C)oc1C` are 2% and -0.33.
The like results for `CCN(Cc1ccccn1)C(=O)c1ccc2nc(-c3ccc(F)cc3)cn2c1` were, in that order, -5% and 0.84.
As for `O=C(NS(=O)(=O)Cc1ccc(Br)cc1)c1ccoc1`, the “% Inhibition” value is on record as -8% and the Z score turned out to be 1.12.
The corresponding values for `O=C(Cc1ccncc1)Nc1n[nH]c2ccc(C(F)(F)F)cc12` are -42% and 4.96.
As for `CN(C)Cc1ccnc(NC(=O)C2CCN(S(C)(=O)=O)CC2)c1`, the “% Inhibition” value was -11% and the Z score came to 1.46.
For `COC(=O)C(C)(C)c1nc(CCN2CCOC2=O)sc1C`, the “% Inhibition” value was -8% and the Z score was determined as 1.06.
The like results for `Cc1cc2n(n1)CCN(Cc1cc(C#N)c(C)[nH]1)C2` were, in that order, -10% and 1.7.
Turning to `Cc1cc(C)nc(N2CCN(C(=O)[C@@H]3CCCCCN3C)CC2)n1`, the “% Inhibition” value is -8% and the Z score is on record as 1.
The corresponding values for `O=C(Cc1cc(F)c(F)cc1Cl)NCc1cc2n(n1)CCNC2` are -14% and 1.27.
With `C[C@H]1CCCCN1C(=O)CCc1nc2ccccc2s1`, the “% Inhibition” value is recorded as -7% and the Z score amounted to 0.58.
For `O=S(=O)(CCCC1CCCCC1)NCc1nc(C2CC2)no1`, the “% Inhibition” value is reported as -7% and the Z score was 1.11.
Consider `O=C1OC[C@H]2CN(c3nc4ccc(Cl)cc4s3)CCN12`, for which the “% Inhibition” value was -7% and the Z score came to 0.98.
With `CC(=O)N1CCc2cc(S(=O)(=O)N3CCC(CC(=O)N4CCOCC4)CC3)ccc21`, the “% Inhibition” value was -15% and the Z score is recorded as 1.44.
Turning to `CCN1CCCN(C(=O)c2ccc(-c3ccc(O)c(C)c3C)cc2)CC1`, the “% Inhibition” value is on record as -7% and the Z score was found to be 1.37.
The like results for `COCC(=O)N(CCC(C)C)c1nnc(C)c2ccccc12` were, in that order, -3% and 0.45.
For the compound `O=S(=O)(c1cccc2nsnc12)N1CCC2(CC[C@@H]2N2CCOCC2)CC1`, the “% Inhibition” value stood at 1% and the Z score was -0.15.
Turning to `Cc1ccc(C(O)CN2CCOC(c3nc(C)n[nH]3)C2)c(C)c1` (stereo not given), the “% Inhibition” value was -3% and the Z score was 0.45.
The corresponding values for `COc1ccc(-c2cc(N3CCOCC3)ncn2)c(OC)c1` are 11% and -1.5.
In the case of `CS(=O)(=O)c1ccccc1CN[C@H]1CCOC12CCCC2`, the “% Inhibition” value is on record as -4% and the Z score was found to be 0.88.
Regarding `C[C@@H](C(=O)N(C)CCCc1cc(-c2ccccc2)n[nH]1)n1cncn1`, the “% Inhibition” value is recorded as -14% and the Z score turned out to be 1.39.
The like results for `Cc1nnnn1[C@@H](Cc1ccc(F)cc1)C(=O)N1CCC(CC(=O)N2CCCC2)CC1` were, in that order, -12% and 1.58.
The corresponding values for `Cc1ccc(C(=O)Nc2cccc(NC(=O)c3ccc4c(c3)OCO4)c2)cc1F` are -4% and 0.65.
The like results for `CC(=O)N1CC[C@H](CN(C)c2nc(-c3ccc(C)cc3)no2)C1` were, in that order, 7% and -0.99.
On to `COCCn1c(N)c(C(=O)CN(C)c2cccc(C)c2C)c(=O)[nH]c1=O`, for which the “% Inhibition” value is listed as -5% and the Z score is listed as 0.79.
The corresponding values for `Brc1ccc2nc(Nc3cccc4ccccc34)nc(-c3ccccc3)c2c1` are -13% and 2.05.
The corresponding values for `CCn1cc(CN(C)C(=O)CCc2ccncc2)cn1` are 1% and -0.22.
Turning to `Cc1cc(=O)[nH]c(N2CCC(NC(=O)Cc3noc4ccccc34)CC2)n1`, the “% Inhibition” value is -4% and the Z score turned out to be 0.75.
The corresponding values for `OCCN(CCCc1cncc2ccccc12)C1CCC1` are -9% and 1.15.
The corresponding values for `Cc1ccc(Cc2nc(N3CCN(S(=O)(=O)c4ccc(C)cc4)CC3)c3c(C)nn(-c4ccccc4)c3n2)cc1` are -10% and 1.51.
Take `O=C(NCCN1CCOCC1)C1CCN(C(=O)c2ccco2)CC1`: the “% Inhibition” value came out at 0% and the Z score was 0.02.
For `CN1CC2(CCN(Cc3ccc4c(c3)OCO4)CC2)C[C@@H](c2ccccc2)C1=O`, the “% Inhibition” value is -9% and the Z score is listed as 1.03.
For the compound `CN(Cc1ccccc1)Cn1cnc2c1c(=O)n(C)c(=O)n2C`, the “% Inhibition” value is recorded as -2% and the Z score came to 0.34.
The like results for `COc1cc(N2CCC3(CC2)c2nc[nH]c2CCN3S(C)(=O)=O)ncn1` were, in that order, 7% and -0.97.
The like results for `CCOc1ccc(CNc2nc(C3CC3)no2)cc1` were, in that order, -2% and 0.25.
The corresponding values for `C[C@H](NCC1(C(N)=O)CCOCC1)C(C)(C)c1ccc(F)cc1` are -3% and 0.58.
Take `Cc1nc2ncnn2c(N2CC[C@]3(CNc4ccccc43)C2)c1C`: the “% Inhibition” value is recorded as -11% and the Z score is given as 1.48.
As for `COCc1nc(C)cc(N(C)Cc2nnc3n2CCNC3=O)n1`, the “% Inhibition” value was -13% and the Z score was 1.4.
The corresponding values for `NC(=O)[C@]12CCC[C@H]1CN(C(=O)Nc1ccc(C3CCC3)cn1)C2` are -9% and 1.71.
The like results for `CCc1ccc(S(=O)(=O)C2CS(=O)(=O)CC2NCc2ccccc2C)cc1` (stereo not given) were, in that order, -15% and 1.77.
